Test results taken from the supplement of paper PMC3334620.
In all, about 33,000 sequences were measured (“E-score (-0.5 to 0.5)”: median about -0.04, highest 2% from about 0.36 on). This is one part of the list.

Molecular target: T1, Hmlalpha2 (UniProt P0CY09)
T1 sequence: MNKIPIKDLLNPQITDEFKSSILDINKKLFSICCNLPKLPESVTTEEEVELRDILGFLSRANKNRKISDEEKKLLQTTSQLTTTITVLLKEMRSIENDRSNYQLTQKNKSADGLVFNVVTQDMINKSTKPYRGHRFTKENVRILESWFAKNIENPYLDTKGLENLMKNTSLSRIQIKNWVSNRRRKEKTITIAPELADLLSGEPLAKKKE
Test: PBM E-score (8-mer binding enrichment) (E-score (-0.5 to 0.5)); higher = stronger / more preferred TF binding; most listed sequences are background and not binding sites
Conditions: protein concentration: 200 nM; construct: GST-full length
Summary of the method: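 Yeast transcription factors carrying a GST tag, as full-length proteins or DNA-binding domains, were produced by PURExpress in vitro transcription/translation. About 100-200 nM protein was applied to universal all-10-mer Agilent arrays, double-stranded by primer extension on fresh or once-stripped slides. Bound protein was detected with fluorescent anti-GST, and scans were normalised with masliner. The Universal PBM Analysis Suite gave each ungapped eight-base word, pooled with its reverse complement, an E-score, a modified Wilcoxon-Mann-Whitney statistic.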

Row | Sequence | PBM E-score
1 | CGTATAGC | 0.135
2 | ATTGGGAG | -0.0721
3 | TAGCAATA | 0.182
4 | ACCAAAGA | 0.107
5 | CACTACTC | 0.0391
6 | AATATTTA | 0.207
7 | ATGCACTG | 0.0249
8 | GGCATTGA | -0.0172
9 | AAATTCGA | -0.146
10 | TCCACACA | 0.146
11 | AGATCGAC | -0.00654
12 | CAGTGTCG | -0.102
13 | CTAAAAAG | -0.0792
14 | GCCAAGGC | -0.373
15 | CCAAATGA | 0.0486
16 | GCAGTCAA | -0.18
17 | AGCTGGGC | -0.218
18 | GATCATTA | 0.19
19 | AGCGGAAT | 0.0242
20 | CGAACGCC | -0.239
21 | ACACGGTC | 0.397
22 | AGTTACAG | 0.0744
23 | CACGATAG | 0.0888
24 | CACACAGC | 0.201
25 | CCTGAATA | 0.13

Row | Sequence | PBM E-score
26 | AATATTGC | 0.163
27 | AATGACGA | 0.148
28 | AAATGTGA | 0.134
29 | AGCGCTCA | -0.199
30 | CCTTGTCA | 0.179
31 | ACTCTCAC | -0.0198
32 | AGATACTG | 0.0776
33 | AATTGCGT | 0.201
34 | CATAATAA | 0.281
35 | ACCGTATA | -0.0532
36 | AAGCCGCT | -0.258
37 | ATAGAAAA | 0.0719
38 | AGACGGAT | 0.0382
39 | CAGAGGCA | -0.101
40 | CGAATTCG | -0.188
41 | GAACGCGA | 0.147
42 | AGAGCAGA | 0.0438
43 | CGCGCACC | -0.0573
44 | ATATGTAC | 0.337
45 | CGTCCAGA | -0.227
46 | GCATATCC | -0.107
47 | AGTATAAT | 0.123
48 | CTCGCCGA | -0.16
49 | ACGTGTAC | 0.382
50 | CAATCCAA | -0.0874

Row | Sequence | PBM E-score
51 | AGGCGTTA | 0.00303
52 | ATCGGATC | -0.0781
53 | CAAAGATA | -0.042
54 | TACTACCA | -0.0546
55 | GACTACTC | -0.0288
56 | CCGTGCAG | 0.0738
57 | CCGGACAC | -0.247
58 | ATCTTGCA | 0.133
59 | GAAGCACC | -0.191
60 | AACCGGGT | -0.0442
61 | ACACAGAA | 0.168
62 | CAGGTCAG | -0.303
63 | GCAGGTCA | -0.206
64 | AAGCAGCC | -0.315
65 | GGAAACGA | -0.0281
66 | TCCGCCGA | -0.0873
67 | AACCGGTT | 0.15
68 | AATGCCAT | 0.022
69 | AGAATTAA | 0.0413
70 | ACGCTCTC | 0.037
71 | TCATATGA | 0.0929
72 | CTAACGTA | 0.255
73 | GGTATCTA | 0.0627
74 | GTAATTAA | 0.326
75 | AGAGTGAC | -0.195

Row | Sequence | PBM E-score
76 | AGGCTTTC | -0.00583
77 | ACAACTTG | 0.107
78 | CGTTGAGA | 0.0342
79 | CTATGTCA | 0.333
80 | ACTATTGG | -0.206
81 | CCTAATGA | 0.0161
82 | ACCCTTGC | -0.209
83 | ACACCACA | 0.211
84 | GATTATGC | -0.257
85 | ACGGCAAC | 0.0456
86 | GATATAAA | 0.00631
87 | CCCGAGCG | -0.121
88 | AAGAACCT | -0.059
89 | ATGGAATG | -0.161
90 | AACGCACC | 0.0799
91 | ACTGTATC | 0.00434
92 | ATCTTCGC | -0.0673
93 | GGAAATAA | 0.0703
94 | AAAAGGGG | -0.174
95 | ATACAGTC | -0.194
96 | GGGGTGTA | 0.0612
97 | CGCCATCA | -0.194
98 | CGGGTTAA | 0.188
99 | CATGACGG | 0.0417
100 | AGCACCTA | -0.122

Row | Sequence | PBM E-score
101 | CCCCGGCA | -0.149
102 | CATTACAG | 0.326
103 | AGGCATAG | -0.091
104 | TCGTAGAA | 0.115
105 | ATAGGTGC | -0.0929
106 | CGAGATAA | 0.183
107 | ATTGATTC | 0.163
108 | ATAGCGTG | 0.14
109 | ACACATGA | 0.304
110 | ACCGTCTG | -0.167
111 | AGGATAGC | -0.0929
112 | TCAACTGA | -0.0509
113 | AAATGGTG | 0.122
114 | AACAGAAC | 0.0502
115 | TAGAAGGA | -0.237
116 | AGGCTCTG | -0.253
117 | CACCTTAC | 0.0205
118 | CCGGGCCG | -0.376
119 | TATCCAGA | -0.0811
120 | AGCCGACC | -0.197
121 | CATTAGCC | -0.255
122 | CCACTGAA | -0.0157
123 | CGTTGAAA | 0.0902
124 | GCTCTCTA | -0.103
125 | GCGTAAAA | 0.4

Row | Sequence | PBM E-score
126 | ATGCGATG | 0.0118
127 | ACGAGATG | -0.04
128 | TCACCAAA | 0.0678
129 | CTTTTAGC | -0.105
130 | GGATGATA | -0.168
131 | AACTCTAA | 0.0318
132 | CTGGCCAG | -0.123
133 | CTCTAAAC | -0.0126
134 | GCGAGCAA | -0.287
135 | CGCAAATC | -0.171
136 | CGCCGCAC | -0.0716
137 | CGACTGTC | -0.179
138 | AAGCCTGT | 0.0273
139 | CTGCCACA | -0.201
140 | AGCACAAG | 0.0394
141 | ACGCTCAA | 0.117
142 | CGCGCCCG | -0.241
143 | ATTTCCGC | -0.143
144 | CGAGAGCA | -0.0155
145 | AGATCCGA | -0.141
146 | ATCCCCTA | -0.39
147 | AGACCGGA | -0.241
148 | AATTTCCC | -0.117
149 | CTTGAAAA | 0.0455
150 | AACCGGTC | -0.185

Row | Sequence | PBM E-score
151 | GTTACCTA | 0.0633
152 | CGAAAACA | 0.31
153 | CAGGCTAA | -0.0418
154 | CGGTACTA | -0.199
155 | TGCATACA | 0.3
156 | CTACTAAG | -0.0656
157 | GTAGTCTA | 0.164
158 | TAAATTGA | 0.188
159 | ATCCCGAA | -0.138
160 | AATGTTCT | 0.144
161 | AGAGCATG | 0.196
162 | AGTAAACT | 0.177
163 | AAATAGGT | 0.129
164 | AGCGCGTA | 0.388
165 | ACCTGAAG | -0.192
166 | GCGGACGA | -0.0131
167 | AAGTCATG | 0.17
168 | AAATGAGA | 0.0578
169 | CACTGAGA | -0.132
170 | ACACATTC | 0.242
171 | CGGCAGAG | -0.219
172 | AATCGTTG | 0.135
